Assay results published in the supplement of paper PMC4604168 (melanoma cell lines).
Some of the results follow. Single values are uncertain, as repeats are few or missing.
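Also: cell number obtained by counting DAPI-stained nuclei in high-throughput microscope images with image analysis software, screen run in 1,536-well plates.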

Each compound was assayed on LB2518-MEL (assay: cell count relative to DMSO control; melanoma cells; higher = more viable cells). Details: library dose: low library concentration; 72 h.
Work on COc1ccc(C2=N[C@@H](c3ccc(Cl)cc3)[C@@H](c3ccc(Cl)cc3)N2C(=O)N2CCNC(=O)C2)c(OC(C)C)c1 [Nutlin-3] + C=C(c1ccc(C(=O)O)cc1)c1cc2c(cc1C)C(C)(C)CCC2(C)C [Bexarotene] (first compound 0.1 µM, partner dose 2 µM) yielded a cell count of 118%.
Work on Cc1cc(Nc2cc(N3CCN(C)CC3)nc(/C=C/c3ccccc3)n2)n[nH]1 + Cc1nc(Nc2ncc(C(=O)Nc3c(C)cccc3Cl)s2)cc(N2CCN(CCO)CC2)n1 [dasatanib] (first compound 0.04 µM, partner dose 0.004 µM) yielded a cell count of 92.5%.
Cc1cn(-c2cc(NC(=O)c3ccc(C)c(Nc4nccc(-c5cccnc5)n4)c3)cc(C(F)(F)F)c2)cn1 [nilotinib] + CC(=O)O[C@@]12CO[C@@H]1C[C@H](O)[C@@]1(C)C(=O)[C@H](O)C3=C(C)[C@@H](OC(=O)[C@H](O)[C@@H](NC(=O)OC(C)(C)C)c4ccccc4)C[C@@](O)([C@@H](OC(=O)c4ccccc4)[C@H]21)C3(C)C [Docetaxel] (first compound 0.2 µM, partner dose 0.0001 µM) showed a cell count of 90.3%.
In the case of Cn1c(=O)n(-c2ccc(C(C)(C)C#N)cc2)c2c3cc(-c4cnc5ccccc5c4)ccc3ncc21 + CO[C@H]1C[C@@H]2CC[C@@H](C)[C@@](O)(O2)C(=O)C(=O)N2CCCC[C@H]2C(=O)O[C@H]([C@H](C)C[C@@H]2CC[C@@H](OCCO)[C@H](OC)C2)CC(=O)[C@H](C)/C=C(\C)[C@@H](O)[C@@H](OC)C(=O)[C@H](C)C[C@H](C)/C=C/C=C/C=C/1C [everolimus] (first compound 0.004 µM, partner dose 0.02 µM), the cell count is reported as 63.3%.
COc1ccc(C2=N[C@@H](c3ccc(Cl)cc3)[C@@H](c3ccc(Cl)cc3)N2C(=O)N2CCNC(=O)C2)c(OC(C)C)c1 [Nutlin-3] + C[C@]1(c2nc3c(C(N)=O)cccc3[nH]2)CCCN1 [Veliparib] (first compound 0.1 µM, partner dose 1.4 µM) was tested, and the cell count was 83.4%.
In the case of COc1ccc(C2=N[C@@H](c3ccc(Cl)cc3)[C@@H](c3ccc(Cl)cc3)N2C(=O)N2CCNC(=O)C2)c(OC(C)C)c1 [Nutlin-3] + Nc1cccc2c1CN(C1CCC(=O)NC1=O)C2=O [lenalidomide] (first compound 0.1 µM, partner dose 1 µM), the cell count is reported as 88.7%.
CC(C)C[C@H](NC(=O)[C@H](Cc1ccccc1)NC(=O)c1cnccn1)B(O)O [Bortezomib] + O=C(O)[C@@H]1[O][Sb](=[O])([O][Sb]2(=[O])[O][C@H]([C@H](O)CO)[C@H](O)[C@H](C(=O)O)[O]2)[O][C@H]([C@H](O)CO)[C@@H]1O [stibogluconate] (first compound 0.001 µM, partner dose 2 µM) gave a cell count of 71%.
With COc1ccc(C2=N[C@@H](c3ccc(Cl)cc3)[C@@H](c3ccc(Cl)cc3)N2C(=O)N2CCNC(=O)C2)c(OC(C)C)c1 [Nutlin-3] + Nc1ccn([C@@H]2O[C@H](CO)[C@@H](O)C2(F)F)c(=O)n1 [gemcitabine] (first compound 0.1 µM, partner dose 0.0004 µM) the cell count was 82.4%.
With Cc1cc(Nc2cc(N3CCN(C)CC3)nc(/C=C/c3ccccc3)n2)n[nH]1 + CCCS(=O)(=O)Nc1ccc(F)c(C(=O)c2c[nH]c3ncc(Cl)cc23)c1F [PLX4720] (first compound 0.04 µM, partner dose 0.08 µM) the cell count was 93.8%.
Cn1c(=O)n(-c2ccc(C(C)(C)C#N)cc2)c2c3cc(-c4cnc5ccccc5c4)ccc3ncc21 + COc1ccc(Cl)c(Nc2nc3ccccc3nc2NS(=O)(=O)c2cccc(NC(=O)C(C)(C)N)c2)c1 [XL147] (first compound 0.004 µM, partner dose 0.8 µM) showed a cell count of 99.6%.
For Cc1cn(-c2cc(NC(=O)c3ccc(C)c(Nc4nccc(-c5cccnc5)n4)c3)cc(C(F)(F)F)c2)cn1 [nilotinib] + NC(=O)c1ccc(N(C(N)=O)c2c(F)cccc2F)nc1-c1ccc(F)cc1F [VX702] (first compound 0.2 µM, partner dose 0.4 µM), the cell count was 123%.
Cc1cn(-c2cc(NC(=O)c3ccc(C)c(Nc4nccc(-c5cccnc5)n4)c3)cc(C(F)(F)F)c2)cn1 [nilotinib] + O=C(O)c1ccc2c(c1)nc(Nc1cccc(Cl)c1)c1ccncc12 [CX4945] (first compound 0.2 µM, partner dose 0.4 µM) gave a cell count of 110%.
Cc1cn(-c2cc(NC(=O)c3ccc(C)c(Nc4nccc(-c5cccnc5)n4)c3)cc(C(F)(F)F)c2)cn1 [nilotinib] + C[C@]1(O)C[C@@H](c2nc(-c3ccc4ccc(-c5ccccc5)nc4c3)c3c(N)nccn32)C1 [OSI906] (first compound 0.2 µM, partner dose 0.4 µM) gave a cell count of 102%.
CC(C)C[C@H](NC(=O)[C@H](Cc1ccccc1)NC(=O)c1cnccn1)B(O)O [Bortezomib] + Nc1nc(F)nc2c1ncn2[C@@H]1O[C@H](CO)[C@@H](O)[C@@H]1O [fludarabine] (first compound 0.001 µM, partner dose 0.2 µM) showed a cell count of 41.8%.
Work on COc1ccc(C2=N[C@@H](c3ccc(Cl)cc3)[C@@H](c3ccc(Cl)cc3)N2C(=O)N2CCNC(=O)C2)c(OC(C)C)c1 [Nutlin-3] + CNC(=O)c1cc(Oc2ccc(NC(=O)Nc3ccc(Cl)c(C(F)(F)F)c3)cc2)ccn1 [sorafenib] (first compound 0.1 µM, partner dose 0.4 µM) yielded a cell count of 90.4%.
For COc1ccc(C2=N[C@@H](c3ccc(Cl)cc3)[C@@H](c3ccc(Cl)cc3)N2C(=O)N2CCNC(=O)C2)c(OC(C)C)c1 [Nutlin-3] + COCC[n+]1c2c(n(Cc3cnccn3)c1C)C(=O)c1ccccc1C2=O [YM155] (first compound 0.1 µM, partner dose 0.0004 µM), the cell count was 87.7%.
Compound COc1ccc(C2=N[C@@H](c3ccc(Cl)cc3)[C@@H](c3ccc(Cl)cc3)N2C(=O)N2CCNC(=O)C2)c(OC(C)C)c1 [Nutlin-3] + Nc1nc(F)nc2c1ncn2[C@@H]1O[C@H](CO)[C@@H](O)[C@@H]1O [fludarabine] (first compound 0.1 µM, partner dose 0.2 µM) has a cell count of 103%.
Compound COc1ccc(C2=N[C@@H](c3ccc(Cl)cc3)[C@@H](c3ccc(Cl)cc3)N2C(=O)N2CCNC(=O)C2)c(OC(C)C)c1 [Nutlin-3] + CC(C)C[C@H](NC(=O)[C@H](Cc1ccccc1)NC(=O)c1cnccn1)B(O)O [Bortezomib] (first compound 0.1 µM, partner dose 0.001 µM) has a cell count of 50.7%.
Compound CC(C)C[C@H](NC(=O)[C@H](Cc1ccccc1)NC(=O)c1cnccn1)B(O)O [Bortezomib] + CNC(=O)c1cc(Oc2ccc(NC(=O)Nc3ccc(Cl)c(C(F)(F)F)c3)cc2)ccn1 [sorafenib] (first compound 0.001 µM, partner dose 0.4 µM) has a cell count of 28.6%.
For Cc1cc(Nc2cc(N3CCN(C)CC3)nc(/C=C/c3ccccc3)n2)n[nH]1 + Nc1ccn([C@@H]2O[C@H](CO)[C@@H](O)C2(F)F)c(=O)n1 [gemcitabine] (first compound 0.04 µM, partner dose 0.0004 µM), the cell count was 99.8%.
In the case of CC(C)C[C@H](NC(=O)[C@H](Cc1ccccc1)NC(=O)c1cnccn1)B(O)O [Bortezomib] + Cc1nc(Nc2ncc(C(=O)Nc3c(C)cccc3Cl)s2)cc(N2CCN(CCO)CC2)n1 [dasatanib] (first compound 0.001 µM, partner dose 0.004 µM), the cell count is reported as 31.1%.
With COc1ccc(C2=N[C@@H](c3ccc(Cl)cc3)[C@@H](c3ccc(Cl)cc3)N2C(=O)N2CCNC(=O)C2)c(OC(C)C)c1 [Nutlin-3] + C[C@@H](Oc1cc(-c2cnn(C3CCNCC3)c2)cnc1N)c1c(Cl)ccc(F)c1Cl [Crizotinib] (first compound 0.1 µM, partner dose 0.2 µM) the cell count was 93.6%.
Compound COc1ccc(C2=N[C@@H](c3ccc(Cl)cc3)[C@@H](c3ccc(Cl)cc3)N2C(=O)N2CCNC(=O)C2)c(OC(C)C)c1 [Nutlin-3] + OCc1c[nH]c2ccccc12 [Indole-3-carbinol] (first compound 0.1 µM, partner dose 0.8 µM) has a cell count of 96.4%.
COc1ccc(C2=N[C@@H](c3ccc(Cl)cc3)[C@@H](c3ccc(Cl)cc3)N2C(=O)N2CCNC(=O)C2)c(OC(C)C)c1 [Nutlin-3] + CS(=O)(=O)CCNCc1ccc(-c2ccc3ncnc(Nc4ccc(OCc5cccc(F)c5)c(Cl)c4)c3c2)o1 [lapatinib] (first compound 0.1 µM, partner dose 0.8 µM) showed a cell count of 98.5%.
Cc1cn(-c2cc(NC(=O)c3ccc(C)c(Nc4nccc(-c5cccnc5)n4)c3)cc(C(F)(F)F)c2)cn1 [nilotinib] + CC(=O)c1c(C)c2cnc(Nc3ccc(N4CCNCC4)cn3)nc2n(C2CCCC2)c1=O [palbociclib] (first compound 0.2 µM, partner dose 0.04 µM) gave a cell count of 89.8%.
Cc1cn(-c2cc(NC(=O)c3ccc(C)c(Nc4nccc(-c5cccnc5)n4)c3)cc(C(F)(F)F)c2)cn1 [nilotinib] + CCN(CC)CCNC(=O)c1c(C)[nH]c(/C=C2\C(=O)Nc3ccc(F)cc32)c1C [sunitinib] (first compound 0.2 µM, partner dose 0.4 µM) was tested, and the cell count was 127%.
